The source of these data is the supplement of paper PMC11417369.

± gives the standard deviation of the averaged measurements. The list shows a part of the results.

The subject of this assay is PfAP2-G AP2 domain (GST-tagged). The assay can be described thus: gcPBM binding intensity (ln(normalized median fluorescence intensity)); higher = stronger DNA binding. Summed up:
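The highest Masliner-normalised natural-log median intensity across replicate spots of either probe orientation is reported as binding intensity. GST-tagged P. falciparum DNA-binding domains expressed in E. coli were applied for 1 h to an Agilent 4 × 180k array of primer-extended double-stranded 36-bp intergenic genomic probes plus negative controls, and bound protein was detected with Alexa488 anti-GST antibody and scanned at 488 nm.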
As for “TATAATAAATCAAATGCACACACACTAATAAAAAAA [CACACA_site7937]”, the “gcPBM binding intensity (ln)” value came out at 10.1 ± 0.2. Turning to “TATATATTATATATATGTACTTATTTATTAATTTAT [XGTACX_site5253]”, the “gcPBM binding intensity (ln)” value amounted to 11.4 ± 0.98. With “TGTTGTTATAAAAAAAAAAAAAAAAAAAAAAAAAAA [GTGCAC_negctrl_site230]”, the “gcPBM binding intensity (ln)” value worked out at 9.62 ± 0.2.

For the sequence “TGTGGTTTTTATAATTGTACATATATATAAATCTAT [XGTACX_site4766]”, the “gcPBM binding intensity (ln)” value was found to be 11 ± 0.65. In the case of “ATATAAAATAAATAAGTGCAGATAAATTTATGTGAC [GTGCAC_site9504]”, the “gcPBM binding intensity (ln)” value came to 10.25 ± 0.057. Next, “TAATATATAATTTTATGTACATAATTATAAACCCAT [XGTACX_site919]”: 11.3 ± 0.73; “TTTATACTTTCAAAATGTACATATATATATATATAT [XGTACX_site6241]”: 11.1 ± 0.63. In the case of “ATTGAAGGGAAATATATAATCATATTCAAAATAAAA [CACACA_negctrl_site728]”, the “gcPBM binding intensity (ln)” value was 9.7 ± 0.12. Take “ATTTCTCTATCGTAATGTACAAAAAAAAGGGAAAAG [XGTACX_site1335]”: the “gcPBM binding intensity (ln)” value amounted to 10.7 ± 0.47. Then “CTAATCATAAAATATACACACACGGATACATTAAAT [CACACA_site2685]”, with 10.2 ± 0.099; and “AAAAAATACCAAAGGGGTACTTACACATAATACTTA [XGTACX_site2111]”, with 11.4 ± 1.1; and “CTTTTTACTTAATACACACACACACCCAAAAAAAAA [CACACA_site948]”, with 10.6 ± 0.49. Next, “CATCAAAATGAAGCATGTACATAATATAAATAAATA [XGTACX_site4647]”: 11.1 ± 0.58. Then “TTTTTTTTTTTTTTTTTTTTTTTCTACCTATTTATT [CACACA_negctrl_site94]”, with 9.49 ± 0.42. “AATAATAAAAATATTGTGCACTTGTATATTTATTAT [GTGCAC_site9963]”: the “gcPBM binding intensity (ln)” value was 10.2 ± 0.2. For “TATGTATATTGAGATTGTACTTGTAATATTAAACAT [XGTACX_site3878]”, the “gcPBM binding intensity (ln)” value is 11.3 ± 0.99. As for “TTGTATAAAATATGTAGTACAATAATATAACATTTT [XGTACX_site8607]”, the “gcPBM binding intensity (ln)” value turned out to be 11.5 ± 0.9. Then “ATATCAAATAATTTAGTGCACTTTTTTTTTTCTTTT [GTGCAC_site9629]”, with 10.5 ± 0.45; and “GGTATTTTCACATATAGTACACAAAAATAAAATAAA [XGTACX_site2139]”, with 11.3 ± 0.85; and “TTAAATAACCTCAAGGATAAGAAAAAATTAAAAATT [CACACA_negctrl_site1336]”, with 10.1 ± 0.12. “TTCTGTATACGGTGTGCACACAATTAAAAAAAAAAA [CACACA_site1416]”: the “gcPBM binding intensity (ln)” value amounted to 10.9 ± 0.74. In the case of “AACATATAAAAATATGCACACACAGGAATACAAACA [CACACA_site8127]”, the “gcPBM binding intensity (ln)” value was determined as 10.29 ± 0.064. As for “AATAAATACAAAAATGTACACACATATATATATTTT [CACACA_site9167]”, the “gcPBM binding intensity (ln)” value stood at 11.2 ± 0.73. As to “TCAATATATATAAGAAGTACATGTGAATGAAAAAAA [XGTACX_site1674]”, the “gcPBM binding intensity (ln)” value was 11.4 ± 0.81. In the case of CTTTATATATATTGCGTGCACATTTTTTTTTTTTTT, the “gcPBM binding intensity (ln)” value amounted to 10.4 ± 0.33.

Turning to “GAAATAATAAAATCGACACACAAAAAAAAAAAAAAA [CACACA_site3476]”, the “gcPBM binding intensity (ln)” value was 9.86 ± 0.52. Next, “CTATTTAAAATTTGAACACACATTATTTATTTTAAA [CACACA_site3114]”: 9.91; “AAAGTTATGATATATACACACATATAAATATTAAAT [CACACA_site6361]”: 9.92 ± 0.014. Next, “TGTTCTAATTTTAATTGTACATATATACATATATAT [XGTACX_site7290]”: 11 ± 0.67; “GGATTTTACCATAGCACACATATATGAATATTTTTC [CACACA_site1814]”: 10.1 ± 0.16. With CATTTTATTTTCTTTGTGCACAAAAATATTTTTTCT, the “gcPBM binding intensity (ln)” value came to 10.6 ± 0.18.

For “TTGTAACAAAAGTACACACACATTTCTATAAATTTT [CACACA_site2772]”, the “gcPBM binding intensity (ln)” value was 11.5 ± 1.1.

With “GTAAATATATATATATATATATATATATATATATAT [GTGCAC_negctrl_site239]”, the “gcPBM binding intensity (ln)” value turned out to be 9.96 ± 0.69. On to “TCTATACCTATTCTTACACACATATGTATTTATATA [CACACA_site4475]”, for which the “gcPBM binding intensity (ln)” value was 10.2 ± 0.042. For “TTCTATGCATTTATAGTGCATGTAAAATATAAGATA [GTGCAC_site9466]”, the “gcPBM binding intensity (ln)” value was found to be 9.98 ± 0.26. Next, “AATTATATTTAGTATATGCACACTTTATGTTTGTTA [CACACA_site2025]”: 9.88 ± 0.12; “GTAGAAAGAAAAATTAGTACTTAAATATTATAAAAA [XGTACX_site8458]”: 11 ± 0.49. Then “CATATATATATATGAACACACAAAAAGAATATTTCC [CACACA_site1493]”, with 10.41 ± 0.092. Next, “TTTAAAAAAAAAAAAAATTTTTTTTTTTTTTTTTTA [CACACA_negctrl_site1415]”: 9.26 ± 0.2; “ATATATTTTTAATATGCACACAAGAATACATTCACA [CACACA_site914]”: 10.2 ± 0.11; “TTAAAAAATCACAACACACACACACCCAAAAAAAAA [CACACA_site1445]”: 10.3 ± 0.4. Consider “GACTTTTTCATTTTTAGTACACATATATATTTCCCT [XGTACX_site3511]”, for which the “gcPBM binding intensity (ln)” value was found to be 11.4 ± 0.73. Then “AAAAAAAAAAAACATACACACACACTAATATTTATA [CACACA_site8038]”, with 9.895 ± 0.021; and “TTTTAAAAAATATAATAATATAAATATTTTATACGT [TGCATGCA_negctrl_site252]”, with 9.51 ± 0.33.
